For one data set, the system named is cyno B cells. As to the kind of experiment: Binding of TBMs to cyno B cells (flow cytometry). To be noted: 1 ug/mL, gated on CD20 positive population. The arrangement: species or system cynomolgus. The protocol: Cynomolgus (cyno) PBMCs (iQ Biosciences #IQB-MnPB102) were depleted of CD3+ cells using MACS positive selection (Miltenyi #130-092-012). The remaining cell population was resuspended in a FACS buffer. 100,000 cells per well were plated in a V-bottom 96-well plate, and incubated on ice for one hour with TBMs of Example 1A (i.e., R variants) at 1 ug/mL. Following two washes with FACS buffer, the cells were incubated with Alexa-647 labeled anti-human Fc secondary antibody (Jackson Immuno #109-605-098) and cyno cross reactive FITC mouse anti-human CD20 antibody (BD Pharmingen #556632) for one hour on ice. Following two washes with FACS buffer, cells were resuspended in 100 μL of buffer and data was collected on a Beckman Coulter Cytoflex. Cells were analyzed using CytExper v2.3 and gated through CD20 positive population.
Background: A flow cytometer gives signals particle by particle.

Another data set relates to Nalm6 target cells. Description: Re-directed T cell cytotoxicity by CD19 TBMs, Nalm6 (Examples 7, 8). Type of data set: cell-based, human. To be noted: E:T 3:1 or 5:1; 24-96 hr. Here is the method:
(§1) In one study, the TBMs were compared across multiple donor effector cells. Briefly, huCD19-expressing Nalm6 or Karpas422 target cells were engineered to overexpress firefly luciferase. Cells were harvested and resuspended in RPMI medium (Invitrogen #11875-093) with 10% FBS. 2,500 target cells per well were plated in a flat-bottom 384-well plate. Human pan T effector cells were isolated via MACS negative selection (Miltenyi Biotec #130-096-535) from two donors from cryopreserved PBMC (Cellular Technologies Limited #CTL-UP1) then added to the plate to obtain a final E:T ratio of 3:1 or 5:1. Co-cultured cells were incubated with a serial dilution of all constructs and controls. For normalization, average maximum luminescence refers to target cells co-incubated with effector cells, but without any test construct. […] Luminescence was measured on an Envision plate reader after a 10 minute incubation. Percent specific lysis was calculated using the following equation: Specific lysis (%)=(1−(sample luminescence/average maximum luminescence))*100
(§2) In one study, the TBMs were compared across multiple donor effector cells. […] For normalization, average maximum luminescence refers to target cells co-incubated with effector cells, but without any test construct. […] Luminescence was measured on an Envision plate reader after a 10 minute incubation. […]

The test system of a further data set is Karpas422 target cells. Description: Re-directed T cell cytotoxicity by CD19 TBMs, Karpas422 (Examples 7, 8). Type of data set: cell-based, human. To be noted: E:T 3:1 or 5:1; 24-96 hr. The protocol: as §1, §2
In a further data set the test system is T cells. Description: Cytokine release assay with Nalm6 target cells (Example 10). The class given is cell-based, human. Conditions: E:T 5:1, 24 hr. Here is the method:
Briefly, huCD19-expressing Nalm6 target cells were harvested and resuspended in RPMI medium with 10% FBS. 20,000 target cells per well were plated in a flat-bottom 96-well plate. Human pan T effector cells were isolated via MACS negative selection from cryopreserved PBMC then added to the plate to obtain a final E:T ratio of 5:1. Co-cultured cells were incubated with serial dilutions of all constructs and controls. After an incubation of 24 hr at 37° C., 5% CO2, the supernatants were harvested by centrifugation at 300×g for 5 min for subsequent analysis.
A multiplexed ELISA was performed according to the manufacturer's instructions using a V-PLEX Proinflammatory Panel 1 Kit (MesoScale Discovery #K15049D).

A further data set addresses T1, human CD19 (Homo sapiens, UniProt P15391).
T1 construct: expressed in transfected cells; host or cells: mouse cell line 300.19
T1 sequence (P15391 20-556): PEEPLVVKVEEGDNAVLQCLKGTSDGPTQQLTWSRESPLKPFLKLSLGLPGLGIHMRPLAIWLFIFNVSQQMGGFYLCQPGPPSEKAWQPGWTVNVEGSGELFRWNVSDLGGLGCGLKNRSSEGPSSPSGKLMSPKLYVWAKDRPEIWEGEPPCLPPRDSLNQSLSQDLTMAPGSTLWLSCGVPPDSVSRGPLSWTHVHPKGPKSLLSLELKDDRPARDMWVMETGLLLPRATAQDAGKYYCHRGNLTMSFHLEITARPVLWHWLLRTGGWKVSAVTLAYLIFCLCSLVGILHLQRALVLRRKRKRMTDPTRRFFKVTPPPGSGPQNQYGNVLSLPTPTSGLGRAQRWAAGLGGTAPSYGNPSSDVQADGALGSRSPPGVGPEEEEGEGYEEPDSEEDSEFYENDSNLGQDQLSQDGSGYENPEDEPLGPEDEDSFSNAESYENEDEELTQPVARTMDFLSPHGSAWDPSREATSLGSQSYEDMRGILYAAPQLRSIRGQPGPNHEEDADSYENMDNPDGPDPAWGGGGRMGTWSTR
Description: Binding of TBMs to 300.19 cells overexpressing human CD19 (FACS). Conditions: serial dilutions. Here is the method: (§3) The mouse cell line 300.19 was engineered to overexpress either human CD19 or cyno CD19. Cells were cultured in RPMI medium (Invitrogen #11875-093) with 10% FBS and 2-mercaptoethanol. Cells were harvested and resuspended in FACS buffer (PBS containing 1% FBS). 50,000 cells per well were plated in a V-bottom 96-well plate. Each cell line was incubated with serial dilutions of TBMs of Example 1A (i.e., R variants) for one hour on ice. Cells were centrifuged for 4 min at 400×g and washed with FACS buffer. This was repeated twice, and then the cells were incubated with Alexa-647 labeled anti-human Fc secondary antibody (Jackson Immuno #109-605-098) for 30 min on ice. The cells were washed twice, then resuspended in 100 μL of FACS buffer. FACS data was collected on a Beckman Coulter Cytoflex and analysis was performed using CytExpert v2.3.

Another data set deals with cyno CD19. Description: Binding of TBMs to 300.19 cells overexpressing cyno CD19 (FACS). More on the design: species or system cynomolgus. To be noted: serial dilutions. Here is the method:
as §3

B1: NEG258-based TBM: TBM of Example 1A with NEG258-based CD19 binding arm; with the 16 nM CD3 ABM probably CD3hi TSP1 (antibody)
heavy: QVQLVQSGAEVKKPGASVKVSCKASGYTFTTYWIQWVRQAPGQRLEWMGAVYPGDADTRYTQKFQGRVTLTADRSASTAYMELSSLRSEDTAVYYCGRDAGLEYYALDYWGQGTLVTVSSASTKGPSVFPLAPSSKSTSGGTAALGCLVKDYFPEPVTVSWNSGALTSGVHTFPAVLQSSGLYSLSSVVTVPSSSLGTQTYICNVNHKPSNTKVDKRVEPKSCGGGGSGGGGSEVQLVESGGGLVQPGGSLKLSCAASGFTFNTYAMNWVRQASGKGLEWVGRIRSKYNNYATYYADSVKDRFTISRDDSKSTLYLQMNSLKTEDTAVYYCVRHGNFGNSYVSWFAYWGQGTLVTVSSGGGGSGGGGSGGGGSGGGGSQAVVTQEPSLTVSPGGTVTLTCRSSTGAVTTSNYANWVQQKPGQAPRGLIGGTNKRAPWTPARFSGSLLGDKAALTLSGAQPEDEAEYFCALWYSNLWVFGGGTKLTVLGGGGSDKTHTCPPCPAPELLGGPSVFLFPPKPKDTLMISRTPEVTCVVVAVSHEDPEVKFNWYVDGVEVHNAKTKPREEQYASTYRVVSVLTVLHQDWLNGKEYKCKVSNKALAAPIEKTISKAKGQPREPQVCTLPPSREEMTKNQVSLSCAVKGFYPSDIAVEWESNGQPENNYKTTPPVLDSDGSFFLVSKLTVDKSRWQQGNVFSCSVMHEALHNHYTQKSLSLSPGK
light: EIVMTQSPATLSVSPGERATLSCRASQDVGTAVAWYQQKPGQAPRLLIYWASTRHTGIPARFSGSGSGTEFTLTISSLQSEDFAVYFCQQYANFPLYTFGQGTKLEIKRTVAAPSVFIFPPSDEQLKSGTASVVCLLNNFYPREAKVQWKVDNALQSGNSQESVTEQDSKDSTYSLSSTLTLSKADYEKHKVYACEVTHQGLSSPVTKSFNRGEC
chain: SQQIYGVVYGNVTFHVPSNVPLKEVLWKKQKDKVAELENSEFRAFSSFKNRVYLDTVSGSLTIYNLTSSDEDEYEMESPNITDTMKFFLYVLESGGGGSDKTHTCPPCPAPELLGGPSVFLFPPKPKDTLMISRTPEVTCVVVAVSHEDPEVKFNWYVDGVEVHNAKTKPREEQYASTYRVVSVLTVLHQDWLNGKEYKCKVSNKALAAPIEKTISKAKGQPREPQVYTLPPCREEMTKNQVSLWCLVKGFYPSDIAVEWESNGQPENNYKTTPPVLDSDGSFFLYSKLTVDKSRWQQGNVFSCSVMHEALHNRYTQKSLSLSPGK
For B1, in the data set with cyno B cells, the “binding to cyno B cells” value is listed as “bind to cyno B cells”. Moreover, the “cytotoxic potency compared between TBMs” value in the data set with Nalm6 target cells and in the data set on Karpas422 target cells was “more potent than the NEG218-based TBM” each time. The “cytokine secretion by T cells (IFN-γ, TNF-α, IL2)” value with T cells was “induce significant cytokine secretion”. In addition, the “binding to cells overexpressing human CD19” value with human CD19 was “bind to cell lines engineered to overexpress both human and cyno CD19”. Moreover, the “binding to cells overexpressing cyno CD19” value with cyno CD19 was “bind to cell lines engineered to overexpress both human and cyno CD19”.

B2: NEG218-based TBM: TBM of Example 1A with NEG218-based CD19 binding arm; with the 16 nM CD3 ABM probably CD3hi TSP2 (antibody)
heavy: EVQLVQSGAEVKKPGESLKISCKASGYSFTNYWMNWVRQMPGKGLEWMGMIHPSDSEIRLNQKFQGQVTLSVDKSIGTAYMQWSSLKASDTAMYYCSRWYYLSSPMDYWGQGTTVTVSSASTKGPSVFPLAPSSKSTSGGTAALGCLVKDYFPEPVTVSWNSGALTSGVHTFPAVLQSSGLYSLSSVVTVPSSSLGTQTYICNVNHKPSNTKVDKRVEPKSCGGGGSGGGGSEVQLVESGGGLVQPGGSLKLSCAASGFTFNTYAMNWVRQASGKGLEWVGRIRSKYNNYATYYADSVKDRFTISRDDSKSTLYLQMNSLKTEDTAVYYCVRHGNFGNSYVSWFAYWGQGTLVTVSSGGGGSGGGGSGGGGSGGGGSQAVVTQEPSLTVSPGGTVTLTCRSSTGAVTTSNYANWVQQKPGQAPRGLIGGTNKRAPWTPARFSGSLLGDKAALTLSGAQPEDEAEYFCALWYSNLWVFGGGTKLTVLGGGGSDKTHTCPPCPAPELLGGPSVFLFPPKPKDTLMISRTPEVTCVVVAVSHEDPEVKFNWYVDGVEVHNAKTKPREEQYASTYRVVSVLTVLHQDWLNGKEYKCKVSNKALAAPIEKTISKAKGQPREPQVCTLPPSREEMTKNQVSLSCAVKGFYPSDIAVEWESNGQPENNYKTTPPVLDSDGSFFLVSKLTVDKSRWQQGNVFSCSVMHEALHNHYTQKSLSLSPGK
light: EIVMTQSPATLSVSPGERATLSCRASQDVGTAVAWYQQKPGQAPRLLIYWASTRHTGIPARFSGSGSGTEFTLTISSLQSEDFAVYFCQQYSSYPYTFGQGTKLEIKRTVAAPSVFIFPPSDEQLKSGTASVVCLLNNFYPREAKVQWKVDNALQSGNSQESVTEQDSKDSTYSLSSTLTLSKADYEKHKVYACEVTHQGLSSPVTKSFNRGEC
chain: B1 chain
In the case of B2, in the data set with cyno B cells, the “binding to cyno B cells” value is on record as “bind to cyno B cells”. The “cytokine secretion by T cells (IFN-γ, TNF-α, IL2)” value in the data set with T cells is reported as “induce significant cytokine secretion”. The “binding to cells overexpressing human CD19” value with human CD19 was “bind to cell lines engineered to overexpress both human and cyno CD19”. The “binding to cells overexpressing cyno CD19” value in the data set with cyno CD19 is “bind to cell lines engineered to overexpress both human and cyno CD19”.

The values above are taken from patent US12221481B2, “CD19 binding molecules and uses thereof” (Novartis AG, priority 2019, dated 2025).
